PubChem BioAssay AID2675 (National Center for Advancing Translational Sciences (NCATS), 2010)
The campaign covered roughly 280,000 compounds. About 100 (0.036%) were called active. Inconclusive results, whose numbers are uncertain, are shown with a selection of clear calls. Calls come from the whole dose curve; as a rule, active = well fitted inhibition curve with a large enough effect in the signal ratio, with a control signal flat (not every such curve was filed as active); inconclusive = small, poorly fitted or top-dose-only effect, or effect the other way, or a change in a side signal; inactive = no such curve, though single readings can be large or run the other way; the % refers to the signal ratio. Potencies beside an inconclusive call are fits to weak or partial responses and may not hold up. “Side channel” marks fits to a control or component signal instead of the main read-out.

Biological target: Muscleblind-like protein 1 (Homo sapiens) (UniProt Q9NR56)
Chain of UniProt Q9NR56 (Q9NR56 whole entry, looked up): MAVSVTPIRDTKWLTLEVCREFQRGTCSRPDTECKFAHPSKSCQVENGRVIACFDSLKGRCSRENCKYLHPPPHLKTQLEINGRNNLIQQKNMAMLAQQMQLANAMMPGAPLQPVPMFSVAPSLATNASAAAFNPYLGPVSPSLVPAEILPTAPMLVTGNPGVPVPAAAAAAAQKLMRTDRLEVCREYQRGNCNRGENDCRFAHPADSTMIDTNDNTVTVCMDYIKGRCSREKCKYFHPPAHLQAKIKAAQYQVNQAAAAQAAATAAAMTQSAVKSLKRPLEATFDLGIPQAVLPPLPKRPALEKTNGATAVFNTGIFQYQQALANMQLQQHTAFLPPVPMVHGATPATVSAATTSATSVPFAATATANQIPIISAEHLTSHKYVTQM
Experiment: qHTS Assay for Inhibitors of MBNL1-poly(CUG) RNA binding
Details: TR-FRET MBNL1-His/biotin-(CUG)12 binding, 665/545 ratio; activity change, negative = inhibition: at 57.5 µM (top of the series)
Method in brief: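 His-tagged MBNL1 binding to biotinylated (CUG)12 RNA was measured by TR-FRET using terbium anti-His antibody (0.055 ng/ul final) and streptavidin-XL665 (5 nM final). Compounds were titrated 92 nM to 58 uM; 60 min at room temperature.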
% is set by controls: 0 for no effect and ±100 for the full control effect; potency is the fitted concentration of half-maximal effect; tags give direction and shape of the fitted curve or compound fluorescence and quenching.

Row | SMILES | activity change, negative = inhibition | Potency
1 | O=C(CN1C(=O)c2ccccc2S1(=O)=O)c1ccccc1Cl | inactive: -5.57% | –
2 | CCC(C)N(C(=O)COC(=O)CSc1ccc([N+](=O)[O-])cc1)C1CCS(=O)(=O)C1 (configuration not stated) | – | inconclusive: 14.1 µM [quencher, side channel, partial curve]
3 | CCn1c(Cl)c(C=O)s/c1=N\S(=O)(=O)c1ccccc1 | – | inconclusive: 31.6 µM [quencher, side channel, single point]
4 | COc1cc(C2C(C(=O)c3cccs3)=C(O)C(=O)N2c2cc(C)on2)ccc1O (configuration not stated) | – | inconclusive: 20 µM [quencher, side channel, single point]
5 | N#CC1=C(N)C(C#N)(C#N)C(c2ccc[nH]2)C2CCCC=C12 (configuration not stated) | – | inconclusive: 28.2 µM [quencher, side channel, single point]
6 | CCSC1=N/C(=C\c2ccc(OC)cc2)C(=O)N1 | – | inconclusive: 39.8 µM [quencher, side channel, partial curve]
7 | Cc1cccc(NC(=O)Nc2ccc(C)cc2Br)c1 | – | inconclusive: 0.126 µM [fluorescent, side channel, full curve]
8 | CN1/C(=C/C(=O)c2cccs2)Sc2ccccc21 | – | inconclusive: 17.8 µM [quencher, side channel, partial curve]
9 | CN(C(=O)CN1C(=O)S/C(=C\c2ccccc2)C1=O)C1CCS(=O)(=O)C1 (configuration not stated) | – | inconclusive: 14.1 µM [quencher, side channel, partial curve]
10 | COc1ccc(/C=N\NC(=O)C2=NNC(=O)C2C)cc1 (configuration not stated) | inactive: 13.1% | –
11 | CC(=O)NC(c1ccccc1)c1c(O)ccc2ccccc12 (configuration not stated) | inactive: -7.52% | –
12 | O=C(N/N=C/C=C\c1cccc([N+](=O)[O-])c1)c1ccccn1 | – | inconclusive: 3.16 µM [quencher, side channel, full curve]
13 | CCN(CC)CCNC(C(=O)Nc1cc(C(F)(F)F)ccc1Cl)c1ccccc1 (configuration not stated) | – | inconclusive: 25.1 µM [fluorescent, side channel, partial curve]
14 | CN(C)CCNc1oc(/C=C/c2ccccc2)nc1C#N | – | inconclusive: 20 µM [quencher, side channel, partial curve]
15 | Fc1ccc(CNC(=S)Nc2ccc(Cl)cc2Cl)cc1 | – | inconclusive: 2.51 µM [fluorescent, side channel, single point]
16 | Cn1c(=Nc2ccc(N3CCOCC3)cc2)ccc2ccccc21 | – | inconclusive: 35.5 µM [quencher, side channel, single point]
17 | COC(=O)C(C)(C(=O)OC)c1ccc([N+](=O)[O-])cn1 | – | inconclusive: 31.6 µM [quencher, side channel, single point]
18 | O=C1/C(=C/c2cccs2)Cc2ccccc21 | – | inconclusive: 14.1 µM [quencher, side channel, partial curve]
19 | CCN(CC)S(=O)(=O)c1ccc(N2CCOCC2)c(NS(=O)(=O)c2ccc(C)c(C)c2)c1 | inactive: -9.62% | –
20 | O=c1oc2c3c4c(cc2c2c1CCC2)OCCN4CCC3 | – | inconclusive: 8.91 µM [quencher, side channel, partial curve]
21 | COc1ccc(-c2[nH]c(-c3ccccc3)nc2SCC(=O)NC2CCCC2)cc1 | inactive: -37% | –

Row | SMILES | activity change, negative = inhibition | Potency
22 | CC1CN(C(=O)CSc2nnc(CNC(=O)c3ccc(S(=O)(=O)N(C)C)cc3)o2)CC(C)O1 (configuration not stated) | inactive: -3.83% | –
23 | O=C(CN1C(=O)c2ccccc2C1=O)c1ccc(F)cc1 | – | inconclusive: 11.2 µM [quencher, side channel, partial curve]
24 | O=C1C2CCCCN2C(=O)N1CCCCN1CCN(c2ccc(F)cc2)CC1 (configuration not stated) | inactive: 2.15% | –
25 | Cc1ccc(/C=N/n2c(COc3ccccc3)n[nH]c2=S)cc1 | inactive: -3.39% | –
26 | O=C1C(Cl)=C(NCCCN2CCOCC2)C(=O)N1CCc1ccccc1 | – | inconclusive: 17.8 µM [quencher, side channel, partial curve]
27 | COc1ccc(/C=C/c2nnc(NC(C)=O)s2)cc1 | – | inconclusive: 3.55 µM [quencher, side channel, partial curve]
28 | CCN(CC)S(=O)(=O)c1cc([N+](=O)[O-])ccc1NNC(=O)Nc1ccccc1 | – | inconclusive: 15.8 µM [quencher, side channel, single point]
29 | CC(=O)N(c1ccc(C)cc1)C1C=CS(=O)(=O)C1 (configuration not stated) | – | inconclusive: 100 µM [inhibitor, partial curve]
30 | CC(=O)c1sc(NC(=O)CCOc2ccccc2)nc1C | inactive: 15.1% | –
31 | C[n+]1ccccc1Nc1cc([N+](=O)[O-])ccc1N | – | inconclusive: 20 µM [quencher, side channel, partial curve]
32 | O=C(/C=C/c1cccc([N+](=O)[O-])c1)NCC1CCCO1 (configuration not stated) | – | inconclusive: 25.1 µM [quencher, side channel, partial curve]
33 | O=C(CSc1ccc2nnc(-c3cccnc3)n2n1)Nc1cccc(F)c1 | inactive: 1.55% | –
34 | CC(/C=N/NC(=O)Cc1cccn1C)=C\c1ccccc1 | – | inconclusive: 44.7 µM [quencher, side channel, single point]
35 | CCOC(=O)c1cc2c(=O)n3ccccc3nc2n(Cc2ccco2)c1=NC(=O)c1ccccc1OCC | – | inconclusive: 7.94 µM [quencher, side channel, partial curve]
36 | CCc1nc(C)cn1S(=O)(=O)c1cc(Br)c(C)cc1OC | – | inconclusive: 0.794 µM [quencher, side channel, single point]
37 | O=C(/C=C/c1ccc([N+](=O)[O-])cc1)/C=C/c1ccco1 | – | inconclusive: 25.1 µM [quencher, side channel, single point]
38 | Cc1nnc(SCC(=O)Nc2ccccc2F)n1-c1ccc(F)cc1 | inactive: 5.97% | –
39 | CCOCCOC(=O)c1cccc2c1-c1ccccc1C2=O | – | inconclusive: 14.1 µM [quencher, side channel, partial curve]
40 | Cc1ccc(-c2nc(-c3ccccn3)no2)cc1Cl | inactive: 4.64% | –
41 | COCCNC(=S)Nc1ccc(Cl)c(Cl)c1 | inactive: -0.293% | –
42 | CCOC(=O)c1sc2nccc(OC)c2c1N=CNOC | – | inconclusive: 15.8 µM [quencher, side channel, partial curve]
